# Source: the antibiotic and cytotoxicity screens of Wong et al. (2023)
# The list shows a part of the results.
# Assays:
# HSkMC = human skeletal muscle cells; test: cytotoxicity call (relative viability < 0.9); details: 10 µM
# HepG2 = test: cytotoxicity call (relative viability < 0.9); details: 10 µM
# S. aureus RN4220 = test: growth inhibition call (relative growth <= 0.2); details: 50 µM
SMILES,cytotoxicity call (HSkMC),cytotoxicity call (HepG2),growth inhibition call (S. aureus RN4220)
C[C@@H]1CN([C@H](C)CO)C(=O)c2cc(NS(=O)(=O)c3cccs3)ccc2O[C@H]1CN(C)Cc1ccc(-c2ccccc2)cc1,inactive,inactive,inactive
Cc1noc(C)c1NC(=O)Nc1ccc2c(c1)C(=O)N([C@@H](C)CO)C[C@@H](C)[C@H](CN(C)Cc1ccc(-c3ccccc3)cc1)O2,inactive,inactive,inactive
CC(C)NC(=O)N(C)C[C@H]1Oc2c(NC(=O)NC3CCCCC3)cccc2C(=O)N([C@H](C)CO)C[C@@H]1C,inactive,inactive,inactive
C=C[C@@H]1C[C@]1(NC(=O)[C@@H]1C[C@@H]2CN1C(=O)[C@H](C(C)(C)C)NC(=O)O[C@@H]1C[C@H]1CCCCCc1nc3ccc(OC)cc3nc1O2)C(=O)NS(=O)(=O)C1CC1,inactive,inactive,inactive
Cc1ccc(S(=O)(=O)Nc2ccc3c(c2)C(=O)N([C@@H](C)CO)C[C@H](C)[C@H](CN(C)CC2CCCCC2)OCCCC[C@H](C)O3)cc1,inactive,inactive,inactive
O=C1O[C@H](c2ccccc2)[C@H](c2ccccc2)N2[C@H]1[C@@H](C(=O)Nc1nc3ccccc3s1)[C@]1(C(=O)Nc3ccc(C#CC4(O)CCCCCC4)cc31)[C@H]2c1ccccc1OCCO,inactive,inactive,inactive
C[C@@H]1CN([C@H](C)CO)C(=O)c2cc(NS(=O)(=O)c3cccs3)ccc2O[C@@H](C)CCCCO[C@@H]1CN(C)CC1CCCCC1,inactive,inactive,inactive
C[C@@H]1CN([C@@H](C)CO)C(=O)c2cccc(NS(=O)(=O)c3cn(C)cn3)c2O[C@@H]1CN(C)S(=O)(=O)c1ccc(F)cc1,inactive,inactive,inactive
C[C@H]1CCCCO[C@H](CN(C)CC2CCCCC2)[C@@H](C)CN([C@@H](C)CO)C(=O)c2cc(NC(=O)Nc3cccc4ccccc34)ccc2O1,active,active,inactive
COc1ccc(S(=O)(=O)N(C)C[C@@H]2Oc3c(NC(=O)c4cnccn4)cccc3C(=O)N([C@H](C)CO)C[C@@H]2C)cc1,inactive,inactive,inactive
CS(=O)(=O)N[C@@H](C(=O)O)c1ccccc1,inactive,inactive,inactive
O=C1OCCC=C[C@H]2O[C@@]34C=CCN(c5ccc(Cl)cc5)C(=O)[C@H]3N(CCCCCCO)C(=O)[C@@H]4[C@@H]12,inactive,inactive,inactive
Cc1ccc(C#N)c(=O)[nH]1,inactive,inactive,inactive
COc1ccc(S(=O)(=O)Nc2cccc3c2O[C@H](CN(C)S(=O)(=O)c2cccs2)[C@H](C)CN([C@H](C)CO)C3=O)cc1,inactive,inactive,inactive
Cc1ccc(S(=O)(=O)Nc2cccc3c2O[C@H](CN(C)S(=O)(=O)c2cccs2)[C@@H](C)CN([C@@H](C)CO)C3=O)cc1,inactive,inactive,inactive
COc1ccc(CN(C)C[C@H]2OCCCC[C@H](C)Oc3ccc(NC(=O)Nc4cccc5ccccc45)cc3C(=O)N([C@@H](C)CO)C[C@H]2C)cc1,inactive,inactive,inactive
C[C@@H]1CN([C@@H](C)CO)C(=O)c2cc(NS(=O)(=O)c3ccc(F)cc3)ccc2O[C@H]1CN(C)Cc1ccc(Cl)c(Cl)c1,active,inactive,inactive
O=C(C[C@H]1C[C@@H]2c3cc(NC(=O)NC4CCCC4)ccc3O[C@@H]2[C@@H](CO)O1)NCc1ccc(Oc2ccccc2)cc1,inactive,inactive,inactive
Cc1ccc(S(=O)(=O)Nc2cccc3c2O[C@@H](CN(C)S(=O)(=O)c2ccccc2)[C@@H](C)CN([C@H](C)CO)C3=O)cc1,inactive,inactive,inactive
C[C@@H]1CN([C@@H](C)CO)S(=O)(=O)c2ccc(C#CC3CCCCC3)cc2O[C@H]1CN(C)C(=O)Cc1ccncc1,inactive,inactive,inactive
Cc1cc(C(=O)Nc2cccc3c2O[C@@H](CN(C)S(=O)(=O)c2cccs2)[C@@H](C)CN([C@@H](C)CO)C3=O)n(C)n1,inactive,inactive,inactive
C[C@@H]1CN([C@H](C)CO)C(=O)c2cccc(NC(=O)C3CC3)c2O[C@@H]1CN(C)C(=O)NC1CCCCC1,inactive,inactive,inactive
NC(=O)CCNCc1ccccc1,inactive,inactive,inactive
C[C@H]1CCCCO[C@@H](CN(C)C(=O)Nc2ccc(C(F)(F)F)cc2)[C@@H](C)CN([C@@H](C)CO)C(=O)c2cc(NS(C)(=O)=O)ccc2O1,inactive,inactive,inactive
